Data published in PubChem BioAssay AID485344 (National Center for Advancing Translational Sciences (NCATS), 2010).
In all, about 340,000 compounds went through this assay and about 6,900 (2%) were called active. Rule as the data show it: active = inhibition above about 30%; inactive = below that, where a call was filed. The entries are a selection whose mix differs from that of the whole data set. The source gives no active or inactive call for entries shown without one.
Also: 0% is about no effect.

These compounds were tested against D(2) dopamine receptor (Homo sapiens) (UniProt P14416) (assay: HTS Assay for Allosteric Antagonists of the Human D2 Dopamine Receptor: Primary Screen for Antagonists). Conditions: HEK293 TREx D2 cells, calcium flux, dopamine EC80; at 10 µM; stronger effect = higher value.
UniProt P14416, sequence (P14416 whole entry, looked up): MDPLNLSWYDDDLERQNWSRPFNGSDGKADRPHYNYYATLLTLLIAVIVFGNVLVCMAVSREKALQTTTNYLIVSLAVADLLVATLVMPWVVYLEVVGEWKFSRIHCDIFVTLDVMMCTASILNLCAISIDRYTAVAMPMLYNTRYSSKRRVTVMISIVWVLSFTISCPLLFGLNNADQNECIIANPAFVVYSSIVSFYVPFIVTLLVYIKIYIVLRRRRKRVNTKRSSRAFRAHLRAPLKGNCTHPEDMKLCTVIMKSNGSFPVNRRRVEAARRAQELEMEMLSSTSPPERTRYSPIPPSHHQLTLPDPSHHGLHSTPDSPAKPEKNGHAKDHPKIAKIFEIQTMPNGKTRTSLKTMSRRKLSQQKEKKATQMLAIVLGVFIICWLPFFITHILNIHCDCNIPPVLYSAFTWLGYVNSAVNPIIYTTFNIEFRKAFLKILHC
How it was run: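 Measurement of antagonist activity uses fluorescent calcium dye in inducible HEK293 T-REx D2 cells: 10 s baseline, compound addition with 180 s read, EC80 dopamine addition with a further 180 s read.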
CCN(CC)c1ccc(NC(=O)CN2C(=O)c3cccnc3Oc3ccc(Cl)cc32)c(C)c1 gave an inhibition of 8.72%. O=C(NCc1ccccc1)c1ccc2c(c1)nc1n2CCOC1 gave an inhibition of 1.85%. Compound CCOC(=O)Cn1c(=O)n(CC2CCCO2)c2nc(-c3c(F)cccc3Cl)nc(C(N)=O)c21 (stereo not given) has an inhibition of -1.27%. CCc1cccc(NS(=O)(=O)c2cc(-c3cnc(C)o3)ccc2OC)c1 was tested, and the inhibition was 12.5%. For CCc1ccccc1NS(=O)(=O)c1cc(Br)cc2c1N(C(=O)C1CC1)CC2, the inhibition was 3.15%. In the case of CCN(CC)c1cc2c(cc1F)c(=O)c(S(=O)(=O)c1ccccc1)cn2C, the inhibition is reported as -12.1%. COC(=O)c1c(NC(=O)/C=C/c2ccc(OC)c(OC)c2)sc2c1CCC2 showed an inhibition of -2.98%. Compound CCn1cc(S(=O)(=O)c2ccc(C)cc2C)c(=O)c2cc(F)c(N3CCCCC3)cc21 has an inhibition of -0.279%. CCOc1ccc(NC(=O)CN2CCSc3ccc(S(=O)(=O)N4CCCC4)cc32)cc1 showed an inhibition of -2.58%. Cc1cc(C)cc(N(CC(=O)NCc2ccccc2Cl)S(=O)(=O)c2c(C)[nH]c(=O)[nH]c2=O)c1 showed an inhibition of -25.1%. Cc1noc(Cn2c(=O)c3ccccc3n(CC(=O)Nc3ccc(C(C)C)cc3)c2=O)n1 showed an inhibition of 2.88%. CCCc1nn2c(=O)cc(COC(=O)c3ccco3)nc2s1 gave an inhibition of 7.02%. For O=C(CSc1ncc2c(n1)-c1ccc(Cl)cc1N(Cc1ccccc1)S2(=O)=O)Nc1ccccc1C(F)(F)F, the inhibition was 3.18%. With CCOC(=O)Cn1c(=O)n(CC2CCCO2)c2nc(-c3ccc(CC)cc3)nc(C(N)=O)c21 (stereo not given) the inhibition was -16.5%. In the case of c1ccc(-c2cnc(SCCN3CCOCC3)n2CC2CCCO2)cc1 (stereo not given), the inhibition is reported as active: 33.8%. CC(=O)Nc1c(C)nn(-c2ccccc2)c1N1CCC(C(=O)Nc2cccc(C(F)(F)F)c2)CC1 showed an inhibition of -5.21%. With CCC(=O)Nc1cc2nn(-c3ccc(C)cc3)nc2cc1C the inhibition was 9.14%. For O=C(CCCN1CCC(O)(c2ccc(Br)cc2)CC1)c1ccc(F)cc1, the inhibition was active: 78.5%. In the case of Cc1ccc(NS(=O)(=O)c2c(C)nc3sc(C)cn3c2=O)c(C)c1, the inhibition is reported as -13.3%. In the case of Cc1ccc(S(=O)(=O)c2nnn3c2nc(N2CCC(C(N)=O)CC2)c2cc(Cl)ccc23)cc1C, the inhibition is reported as -2.76%. In the case of Cc1nc2c(c(C)nn2C(C)(C)C)c(C)c1CCC(=O)Nc1ccc(Br)cc1Br, the inhibition is reported as -1.27%. In the case of CCOC(=O)CN1C(=O)C(=O)c2cc(C)ccc21, the inhibition is reported as active: 37%. In the case of CCCN(CCC)C(=O)C1CCCN(c2ncnc3c2nc2n3CCCCC2)C1 (stereo not given), the inhibition is reported as -1.14%. Cc1ccccc1CNC(=O)c1ccc(CN2CC(=O)N3CCCCC3C2=O)cc1 (stereo not given) was tested, and the inhibition was 17.3%. COc1cccc(CNC(=O)CCC(=O)N2CC(C)Sc3ccccc32)c1 (stereo not given) gave an inhibition of 9.45%. Work on Cc1ccccc1CN1C(=O)c2ccccc2S(=O)c2ccc(C(=O)NCc3ccc4c(c3)OCO4)cc21 (stereo not given) yielded an inhibition of -5.52%. In the case of COc1ccc(CNC(=O)C(=O)Nc2cc(Cl)ccc2OC)cc1, the inhibition is reported as 9.69%. CC(=O)Nc1cc(C(=O)Nc2ccc3c(c2)N(C)C(=O)c2ccccc2S3)ccc1C was tested, and the inhibition was -9.2%. With COc1ccc(N2CCN(S(=O)(=O)CCNC(=O)c3c(F)cccc3Cl)CC2)cc1 the inhibition was -21.8%. For NC(N)=NCc1cccc(I)c1, the inhibition was active: 34.3%. Work on Cc1ccc(C(=O)NCc2nnnn2-c2ccc(C)c(C)c2)cc1 yielded an inhibition of -2.76%. For Cc1ccc(-c2nnc(Nc3ccc(Br)cc3)c3ccccc23)cc1S(=O)(=O)NCc1nc2ccccc2[nH]1, the inhibition was 10.3%. In the case of CCOc1ccc(NC(=O)C2CCCN(c3nnc(-n4c(C)ccc4C)s3)C2)cc1 (stereo not given), the inhibition is reported as -0.0938%. For Cc1ccc(Cl)cc1NC(=O)c1cccc(NC(=O)N2CCSc3ncccc32)c1, the inhibition was 3.78%. COCCN1C(=O)c2[nH]nc(-c3c(C)cc(C)cc3O)c2C1c1cccc(O)c1 (stereo not given) gave an inhibition of -23.1%. In the case of COc1ccc(S(=O)(=O)N(CCc2ccccc2)CC(=O)NCc2ccccc2)cc1OC, the inhibition is reported as -14.9%. Compound CCc1ccc(NCc2cc3ccc(OC)cc3n(CC(=O)Nc3cccc(Cl)c3C)c2=O)cc1 has an inhibition of 5.86%. With CC(=O)c1ccc(NC(=O)C2CCC(CNS(=O)(=O)c3cccc4nsnc34)CC2)cc1 (stereo not given) the inhibition was 2.03%. Compound CCc1ccccc1N1C(=O)N(Cc2cccc(Cl)c2)c2ccccc2S1(=O)=O has an inhibition of -20.9%. Work on CC(C)(C)OC(=O)N1CCC(c2c(C(=O)N3CCN(C(=O)c4ccco4)CC3)cnn2-c2ccc(Cl)cc2)CC1 yielded an inhibition of 3.46%. In the case of COc1ccccc1NS(=O)(=O)c1ccc(NC(=O)c2nc3nc(C)cc(C(F)F)n3n2)cc1, the inhibition is reported as active: 38.6%. For Cc1ccc(-n2c(CNc3ccc(F)cc3)nnc2SCC(=O)N2CCCC2)cc1, the inhibition was active: 30.1%. With COc1cc(OC)c(NC(=O)NCc2ccc3c(c2)CCN3C(C)=O)cc1Cl the inhibition was -20.2%. O=c1c2cc3c(cc2n(Cc2cccc(F)c2)c(=O)n1Cc1nc(-c2ccccc2)no1)OCO3 showed an inhibition of 3.88%. CCc1ccccc1NC(=O)CC(C)n1nc(C)cc1C (stereo not given) showed an inhibition of 7.32%. COc1cccc(C(=O)Nc2ccccc2-c2nc(-c3ccc(C)cc3)no2)c1 was tested, and the inhibition was 17.7%. Work on Cc1ccc(N2C(=O)c3n[nH]c(C)c3C2c2ccc(C(C)C)cc2)cc1 (stereo not given) yielded an inhibition of 1.09%. In the case of CCOC(=O)c1c(S(=O)(=O)N2CCN(c3ccccc3OC)CC2)c(C)n(C)c1C, the inhibition is reported as 9.59%. Cn1c(=NC(=O)c2ccc(F)cc2)sc2cc(Br)ccc21 showed an inhibition of 8.67%. CCOCN(C(=O)Cn1c(C)nc2ccccc21)c1c(C)cccc1CC showed an inhibition of -4.5%. Cc1ccc(Cl)cc1-n1c(=O)cc(N2CCN(c3ccccc3)CC2)[nH]c1=O gave an inhibition of -1.46%. In the case of Cc1cc2n(n1)CCCN2C(=O)Nc1ccccc1F, the inhibition is reported as 4.11%. Work on Cc1cccc(-c2noc(-c3ccc(NC4CCCC4)c([N+](=O)[O-])c3)n2)c1 yielded an inhibition of 2.52%. With COc1cc2c(cc1NC(=O)CN1CCN(S(=O)(=O)c3ccc(C)cc3)CC1)oc1ccccc12 the inhibition was active: 41.8%. CN1CCC=C(C(=O)N2c3ccccc3Sc3ccc(Cl)cc32)C1 was tested, and the inhibition was active: 38.6%. With Cc1ccc(OCC(=O)Nc2cccc(C(=O)OCc3cc(=O)n4cc(C)sc4n3)c2)cc1 the inhibition was -14.2%. O=C(CC1N=C2c3ccccc3N=C(SCc3cccc(Cl)c3)N2C1=O)NC1CCCCC1 (stereo not given) was tested, and the inhibition was -6.5%. Compound CCCCCNC(=O)C1CCC(Cn2c(=O)c3sccc3n(CC(=O)N3CCCC3)c2=O)CC1 (stereo not given) has an inhibition of -15.9%. In the case of COc1cc(OC)c(NC(=O)c2nc(-c3ccncc3)no2)cc1Cl, the inhibition is reported as 22.4%. COc1ccc(NC(=O)CSc2nnc(-c3nnn(-c4ccc(F)cc4)c3C)o2)cc1 showed an inhibition of 12.3%. COc1cccc(C(=O)N2CCC(N3CCN(Cc4ccc(F)cc4)C(=O)C3=O)CC2)c1 was tested, and the inhibition was 3.37%. CCc1nnc(SCc2nc(-c3ccccc3F)oc2C)c2cc3sccc3n12 showed an inhibition of 16.5%. CCOc1ccccc1NC(=O)c1c(NCc2ccc(OC)c(OC)c2OC)sc2c1CCC(C)C2 (stereo not given) was tested, and the inhibition was 16.4%. For COc1cccc(C(=O)N2CCC(c3nc4ccccc4s3)CC2)c1, the inhibition was -20.5%. With CCOc1ccccc1NC(=O)c1ccc2c(c1)CCCN2S(C)(=O)=O the inhibition was -15.2%. Cc1ccc(C(=O)Nc2nnc(SCc3cc(=O)c4c(C)ccc(C)c4[nH]3)s2)cc1 showed an inhibition of 4.38%. Work on O=C(C1COc2ccccc2O1)N(Cc1cccnc1)c1nc2c(F)cc(F)cc2s1 (stereo not given) yielded an inhibition of 5.37%. In the case of O=C(Nc1ccc2nn(-c3ccc(F)cc3)nc2c1)c1cccc2c(Cl)cccc12, the inhibition is reported as -5.27%. With CC(=O)c1ccc(NC(=O)CSc2nccn2Cc2ccco2)cc1 the inhibition was 8.95%. Compound CC(C)c1ccc(S(=O)(=O)Nc2ccc(O)c(Sc3nc4ccccc4s3)c2)cc1 has an inhibition of 2.36%. In the case of CSc1cccc(NC(=O)C2CCN(S(=O)(=O)c3ccc4[nH]c(=O)ccc4c3)CC2)c1, the inhibition is reported as -20.3%. CSc1ccc(CN2CCC(CO)(CCOc3ccccc3)CC2)cc1 was tested, and the inhibition was active: 50.5%. COc1cc2c(=O)c(S(=O)(=O)c3ccc(C)cc3)cn(Cc3cccc(C)c3)c2cc1OC showed an inhibition of -13.6%. Work on CC1CN(C(=O)N2CCC(C(=O)NCCC3=CCCCC3)CC2)c2ccccc2O1 (stereo not given) yielded an inhibition of -12.3%. CCCCNC(=O)C1CCCN(c2nnc(C)c3c(C)n(-c4ccc(Cl)cc4)nc23)C1 (stereo not given) showed an inhibition of -10.2%. CC(=O)c1cccc(NC(=O)c2noc3c2CC(C)CC3)c1 (stereo not given) showed an inhibition of -5.67%. Compound COc1ccc(C(=O)N2CCN(C(=O)COc3ccc(Br)cc3)CC2)cc1OC has an inhibition of 7.46%. COc1ccc(CCNC(=O)CN(C)S(=O)(=O)c2cccs2)cc1 was tested, and the inhibition was active: 32.2%. In the case of CCCN1CCC(=O)N([C@H](COc2ccccc2)Cc2ccccc2)CC1, the inhibition is reported as active: 39.3%. Cc1cc2c(cc1C)C(c1cccc(OC(C)C)c1)CC(=O)N2 (stereo not given) showed an inhibition of -10.1%. In the case of Cn1c(SCC(=O)Nc2ccc(Br)cc2F)nnc1-c1ccco1, the inhibition is reported as active: 31%. CCCC(=O)Nc1ccc(NC(=O)c2sc3ccccc3c2Cl)cc1 was tested, and the inhibition was -8.89%. COCCn1c(SCC(=O)c2ccccc2)nc2cc(C(=O)NC3CCCC3)ccc2c1=O was tested, and the inhibition was -1.82%. Compound CCc1ccc2nc(N(Cc3cccnc3)C(=O)c3cccs3)sc2c1 has an inhibition of -17.1%. With CCSc1nc2c([nH]c3ccccc32)c(=O)n1-c1ccc(OC)cc1 the inhibition was -15.3%. For Cc1cccc(NC(=O)CCNS(=O)(=O)c2ccc3c(c2)CCCC(=O)N3)c1C, the inhibition was -2.73%. Compound CCOC(=O)c1[nH]c2c(c1Cc1ccccc1)C(=O)CC(c1ccc(OC)cc1)C2 (stereo not given) has an inhibition of -25.8%. O=C(O)CCCC(=O)N1CCc2cc(S(=O)(=O)NCc3ccccc3)ccc21 showed an inhibition of 3.51%. CN(C)c1ccc(CNc2nc(-c3ccco3)nn2S(C)(=O)=O)cc1 gave an inhibition of -18.8%. In the case of CCOC(=O)c1ccc(NC(=O)c2cnc(N3CCCC3)nc2C)cc1, the inhibition is reported as 4.18%. For CN(C)c1ccc(NC(=O)Cn2c(SCc3ccc(F)cc3)nc3cccnc32)cc1, the inhibition was -1.64%. With COc1ccc(C/C(C)=N/NC(=S)Nc2ccc(C(C)C)cc2)cc1 the inhibition was active: 36.5%. Compound CCc1ccc(NC(=O)CSC2=Nc3ccccc3C3=NC(CC(=O)NCc4ccc5c(c4)OCO5)C(=O)N23)cc1 (stereo not given) has an inhibition of -3.41%. Compound Cc1ccccc1Cn1c(=O)n(CCCCC(=O)NCCc2ccccc2)c(=O)c2ccccc21 has an inhibition of -2.22%. In the case of CCc1ccc2occ(CC(=O)Nc3c(C(=O)Nc4ccc(Cl)cc4)oc4ccccc34)c2c1, the inhibition is reported as -7.22%.
